Laboratory results: patent publication US20240228567A1 (Zymeworks, published 2024)

B1: Masked IL12 HetFc fusion protein variant 37479 (p40 K197T) (Fc fusion)
chain 1: [here human IgG1 Fc with changes without letters]SADGGIWELKKDVYVVELDWYPDAPGEMVVLTCDTPEEDGITWTLDQSSEVLGSGKTLTIQVKEFGDAGQYTCHKGGEVLSHSLLLLHKKEDGIWSTDILKDQKEPKNKTFLRCEAKNYSGRFTCWWLTTISTDLTFSVKSSRGSSDPQGVTCGAATLSAERVRGDNKEYEYSVECQEDSACPAAEESLPIEVMVDAVHKLTYENYTSSFFIRDIIKPDPPKNLQLKPLKNSRQVEVSWEYPDTWSTPHSYFSLTFCVQVQGKSKREKKDRVFTDKTSATVICRKNASISVRAQDRYYSSSWSEWASVPCSGGGGSGGGGSGGGGSNLPVATPDPGMFPCLHHSQNLLRAVSNMLQKARQTLEFYPCTSEEIDHEDITKDKTSTVEACLPLELTKNESCLNSRETSFITNGSCLASRKTSFMMALCLSSIYEDLKMYQVEFKTMNAKLLMDPKRQIFLDQNMLAVIDELMQALNFNSETVPQKSSLEEPDFYKTKIKLCILLHAFRIRAVTIDRVMSYLNAS
chain 2: EPKSSDKTHTCPPCPAPEAAGGPSVFLFPPKPKDTLMISRTPEVTCVVVSVSHEDPEVKFNWYVDGVEVHNAKTKPREEQYNSTYRVVSVLTVLHQDWLNGKEYKCKVSNKALPAPIEKTISKAKGQPREPQVYVLPPSRDELTKNQVSLLCLVKGFYPSDIAVEWESNGQPENNYLTWPPVLDSDGSFFLYSKLTVDKSRWQQGNVFSCSVMHEALHNHYTQKSLSLSPGGGGGSGGGGSGGGSGGGSGGGGSGGGGSQVQLVESGGGVVQPGRSLRLSCAASGFTFSSYGMHWVRQAPGKGLEWVAFIRYDGSNKYYADSVKGRFTISRDNSKNTLYLQMNSLRAEDTAVYYCKTHGSHDNWGQGTMVTVSSGGSGGGSGGGSGGGSGGGSGQSVLTQPPSVSGAPGQRVTISCSGSRSNIGSNTVKWYQQLPGTAPKLLIYYNDQRPSGVPDRFSGSKSGTSASLAITGLQAEDEADYYCQSYDRYTHPALLFGTGTKVTVL
B2: Masked IL12 HetFc fusion protein variant 37482 (p40 K84W) (Fc fusion)
chain 1: [here human IgG1 Fc with changes without letters]SADGGIWELKKDVYVVELDWYPDAPGEMVVLTCDTPEEDGITWTLDQSSEVLGSGKTLTIQVKEFGDAGQYTCHKGGEVLSHSLLLLHWKEDGIWSTDILKDQKEPKNKTFLRCEAKNYSGRFTCWWLTTISTDLTFSVKSSRGSSDPQGVTCGAATLSAERVRGDNKEYEYSVECQEDSACPAAEESLPIEVMVDAVHKLKYENYTSSFFIRDIIKPDPPKNLQLKPLKNSRQVEVSWEYPDTWSTPHSYFSLTFCVQVQGKSKREKKDRVFTDKTSATVICRKNASISVRAQDRYYSSSWSEWASVPCSGGGGSGGGGSGGGGSNLPVATPDPGMFPCLHHSQNLLRAVSNMLQKARQTLEFYPCTSEEIDHEDITKDKTSTVEACLPLELTKNESCLNSRETSFITNGSCLASRKTSFMMALCLSSIYEDLKMYQVEFKTMNAKLLMDPKRQIFLDQNMLAVIDELMQALNFNSETVPQKSSLEEPDFYKTKIKLCILLHAFRIRAVTIDRVMSYLNAS
chain 2: EPKSSDKTHTCPPCPAPEAAGGPSVFLFPPKPKDTLMISRTPEVTCVVVSVSHEDPEVKFNWYVDGVEVHNAKTKPREEQYNSTYRVVSVLTVLHQDWLNGKEYKCKVSNKALPAPIEKTISKAKGQPREPQVYVLPPSRDELTKNQVSLLCLVKGFYPSDIAVEWESNGQPENNYLTWPPVLDSDGSFFLYSKLTVDKSRWQQGNVFSCSVMHEALHNHYTQKSLSLSPGGGGGSGGGGSGGGSGGGSGGGGSGGGGSQVQLVESGGGVVQPGRSLRLSCAASGFTFSSYGMHWVRQAPGKGLEWVAFIRYDGSNKYYADSVKGRFTISRDNSKNTLYLQMNSLRAEDTAVYYCKTHGSHDNWGQGTMVTVSSGGSGGGSGGGSGGGSGGGSGQSVLTQPPSVSGAPGQRVTISCSGSRSNIGSNTVKWYQQLPGTAPKLLIYYNDQRPSGVPDRFSGSKSGTSASLAITGLQAEDEADYYCQSYDRYTHPALLFGTGTKVTVL
B3: Masked IL12 HetFc fusion protein variant 37481 (p40 E59S) (Fc fusion)
chain 1: [here human IgG1 Fc with changes without letters]SADGGIWELKKDVYVVELDWYPDAPGEMVVLTCDTPEEDGITWTLDQSSEVLGSGKTLTIQVKSFGDAGQYTCHKGGEVLSHSLLLLHKKEDGIWSTDILKDQKEPKNKTFLRCEAKNYSGRFTCWWLTTISTDLTFSVKSSRGSSDPQGVTCGAATLSAERVRGDNKEYEYSVECQEDSACPAAEESLPIEVMVDAVHKLKYENYTSSFFIRDIIKPDPPKNLQLKPLKNSRQVEVSWEYPDTWSTPHSYFSLTFCVQVQGKSKREKKDRVFTDKTSATVICRKNASISVRAQDRYYSSSWSEWASVPCSGGGGSGGGGSGGGGSNLPVATPDPGMFPCLHHSQNLLRAVSNMLQKARQTLEFYPCTSEEIDHEDITKDKTSTVEACLPLELTKNESCLNSRETSFITNGSCLASRKTSFMMALCLSSIYEDLKMYQVEFKTMNAKLLMDPKRQIFLDQNMLAVIDELMQALNFNSETVPQKSSLEEPDFYKTKIKLCILLHAFRIRAVTIDRVMSYLNAS
chain 2: EPKSSDKTHTCPPCPAPEAAGGPSVFLFPPKPKDTLMISRTPEVTCVVVSVSHEDPEVKFNWYVDGVEVHNAKTKPREEQYNSTYRVVSVLTVLHQDWLNGKEYKCKVSNKALPAPIEKTISKAKGQPREPQVYVLPPSRDELTKNQVSLLCLVKGFYPSDIAVEWESNGQPENNYLTWPPVLDSDGSFFLYSKLTVDKSRWQQGNVFSCSVMHEALHNHYTQKSLSLSPGGGGGSGGGGSGGGSGGGSGGGGSGGGGSQVQLVESGGGVVQPGRSLRLSCAASGFTFSSYGMHWVRQAPGKGLEWVAFIRYDGSNKYYADSVKGRFTISRDNSKNTLYLQMNSLRAEDTAVYYCKTHGSHDNWGQGTMVTVSSGGSGGGSGGGSGGGSGGGSGQSVLTQPPSVSGAPGQRVTISCSGSRSNIGSNTVKWYQQLPGTAPKLLIYYNDQRPSGVPDRFSGSKSGTSASLAITGLQAEDEADYYCQSYDRYTHPALLFGTGTKVTVL
B4: Masked IL12 HetFc fusion protein variant 37493 (p40 W15H) (Fc fusion)
chain 1: [here human IgG1 Fc with changes without letters]SADGGIWELKKDVYVVELDHYPDAPGEMVVLTCDTPEEDGITWTLDQSSEVLGSGKTLTIQVKEFGDAGQYTCHKGGEVLSHSLLLLHKKEDGIWSTDILKDQKEPKNKTFLRCEAKNYSGRFTCWWLTTISTDLTFSVKSSRGSSDPQGVTCGAATLSAERVRGDNKEYEYSVECQEDSACPAAEESLPIEVMVDAVHKLKYENYTSSFFIRDIIKPDPPKNLQLKPLKNSRQVEVSWEYPDTWSTPHSYFSLTFCVQVQGKSKREKKDRVFTDKTSATVICRKNASISVRAQDRYYSSSWSEWASVPCSGGGGSGGGGSGGGGSNLPVATPDPGMFPCLHHSQNLLRAVSNMLQKARQTLEFYPCTSEEIDHEDITKDKTSTVEACLPLELTKNESCLNSRETSFITNGSCLASRKTSFMMALCLSSIYEDLKMYQVEFKTMNAKLLMDPKRQIFLDQNMLAVIDELMQALNFNSETVPQKSSLEEPDFYKTKIKLCILLHAFRIRAVTIDRVMSYLNAS
chain 2: EPKSSDKTHTCPPCPAPEAAGGPSVFLFPPKPKDTLMISRTPEVTCVVVSVSHEDPEVKFNWYVDGVEVHNAKTKPREEQYNSTYRVVSVLTVLHQDWLNGKEYKCKVSNKALPAPIEKTISKAKGQPREPQVYVLPPSRDELTKNQVSLLCLVKGFYPSDIAVEWESNGQPENNYLTWPPVLDSDGSFFLYSKLTVDKSRWQQGNVFSCSVMHEALHNHYTQKSLSLSPGGGGGSGGGGSGGGSGGGSGGGGSGGGGSQVQLVESGGGVVQPGRSLRLSCAASGFTFSSYGMHWVRQAPGKGLEWVAFIRYDGSNKYYADSVKGRFTISRDNSKNTLYLQMNSLRAEDTAVYYCKTHGSHDNWGQGTMVTVSSGGSGGGSGGGSGGGSGGGSGQSVLTQPPSVSGAPGQRVTISCSGSRSNIGSNTVKWYQQLPGTAPKLLIYYNDQRPSGVPDRFSGSKSGTSASLAITGLQAEDEADYYCQSYDRYTHPALLFGTGTKVTVL
B5: Masked IL12 HetFc fusion protein variant 37478 (p40 E59R) (Fc fusion)
chain 1: [here human IgG1 Fc with changes without letters]SADGGIWELKKDVYVVELDWYPDAPGEMVVLTCDTPEEDGITWTLDQSSEVLGSGKTLTIQVKRFGDAGQYTCHKGGEVLSHSLLLLHKKEDGIWSTDILKDQKEPKNKTFLRCEAKNYSGRFTCWWLTTISTDLTFSVKSSRGSSDPQGVTCGAATLSAERVRGDNKEYEYSVECQEDSACPAAEESLPIEVMVDAVHKLKYENYTSSFFIRDIIKPDPPKNLQLKPLKNSRQVEVSWEYPDTWSTPHSYFSLTFCVQVQGKSKREKKDRVFTDKTSATVICRKNASISVRAQDRYYSSSWSEWASVPCSGGGGSGGGGSGGGGSNLPVATPDPGMFPCLHHSQNLLRAVSNMLQKARQTLEFYPCTSEEIDHEDITKDKTSTVEACLPLELTKNESCLNSRETSFITNGSCLASRKTSFMMALCLSSIYEDLKMYQVEFKTMNAKLLMDPKRQIFLDQNMLAVIDELMQALNFNSETVPQKSSLEEPDFYKTKIKLCILLHAFRIRAVTIDRVMSYLNAS
chain 2: EPKSSDKTHTCPPCPAPEAAGGPSVFLFPPKPKDTLMISRTPEVTCVVVSVSHEDPEVKFNWYVDGVEVHNAKTKPREEQYNSTYRVVSVLTVLHQDWLNGKEYKCKVSNKALPAPIEKTISKAKGQPREPQVYVLPPSRDELTKNQVSLLCLVKGFYPSDIAVEWESNGQPENNYLTWPPVLDSDGSFFLYSKLTVDKSRWQQGNVFSCSVMHEALHNHYTQKSLSLSPGGGGGSGGGGSGGGSGGGSGGGGSGGGGSQVQLVESGGGVVQPGRSLRLSCAASGFTFSSYGMHWVRQAPGKGLEWVAFIRYDGSNKYYADSVKGRFTISRDNSKNTLYLQMNSLRAEDTAVYYCKTHGSHDNWGQGTMVTVSSGGSGGGSGGGSGGGSGGGSGQSVLTQPPSVSGAPGQRVTISCSGSRSNIGSNTVKWYQQLPGTAPKLLIYYNDQRPSGVPDRFSGSKSGTSASLAITGLQAEDEADYYCQSYDRYTHPALLFGTGTKVTVL

The binders below were run against IL12 receptor on HEK reporter cells stably transfected with genes for the IL12 receptor (UniProt P42701 24-662; Q99665 24-862) (assay: cell-based or functional assay).
B1 was tested, and the “EC50, IL12 RGA, repeat 1” value was 16.4 nM and the “EC50, IL12 RGA, repeat 2” value was 16.4 nM. In the case of B2, the “EC50, IL12 RGA, repeat 1” value is reported as 14.9 nM and the “EC50, IL12 RGA, repeat 2” value is reported as 8.15 nM. With B3 the “EC50, IL12 RGA, repeat 1” value was 53.1 nM and the “EC50, IL12 RGA, repeat 2” value was 29.2 nM. With B4 the “EC50, IL12 RGA, repeat 1” value was 6.05 nM and the “EC50, IL12 RGA, repeat 2” value was 5.12 nM. For B5, the “EC50, IL12 RGA, repeat 1” value was 15.1 nM and the “EC50, IL12 RGA, repeat 2” value was 13.1 nM.
